Measurements as given in paper PMC4336329 (PLoS ONE, 2015).
Among all 310,000 compounds or so, about 2,200 (0.71%) showed an effect of 50% or more. Effects have a minus sign here. Some of the results follow.

Target: human ether-à-go-go-related gene (hERG) potassium channel (human, UniProt Q12809)
Assay: primary screen, population patch clamp on CHO cells stably expressing hERG

Sequence of human ether-à-go-go-related gene (hERG) potassium channel (Q12809 whole entry, looked up): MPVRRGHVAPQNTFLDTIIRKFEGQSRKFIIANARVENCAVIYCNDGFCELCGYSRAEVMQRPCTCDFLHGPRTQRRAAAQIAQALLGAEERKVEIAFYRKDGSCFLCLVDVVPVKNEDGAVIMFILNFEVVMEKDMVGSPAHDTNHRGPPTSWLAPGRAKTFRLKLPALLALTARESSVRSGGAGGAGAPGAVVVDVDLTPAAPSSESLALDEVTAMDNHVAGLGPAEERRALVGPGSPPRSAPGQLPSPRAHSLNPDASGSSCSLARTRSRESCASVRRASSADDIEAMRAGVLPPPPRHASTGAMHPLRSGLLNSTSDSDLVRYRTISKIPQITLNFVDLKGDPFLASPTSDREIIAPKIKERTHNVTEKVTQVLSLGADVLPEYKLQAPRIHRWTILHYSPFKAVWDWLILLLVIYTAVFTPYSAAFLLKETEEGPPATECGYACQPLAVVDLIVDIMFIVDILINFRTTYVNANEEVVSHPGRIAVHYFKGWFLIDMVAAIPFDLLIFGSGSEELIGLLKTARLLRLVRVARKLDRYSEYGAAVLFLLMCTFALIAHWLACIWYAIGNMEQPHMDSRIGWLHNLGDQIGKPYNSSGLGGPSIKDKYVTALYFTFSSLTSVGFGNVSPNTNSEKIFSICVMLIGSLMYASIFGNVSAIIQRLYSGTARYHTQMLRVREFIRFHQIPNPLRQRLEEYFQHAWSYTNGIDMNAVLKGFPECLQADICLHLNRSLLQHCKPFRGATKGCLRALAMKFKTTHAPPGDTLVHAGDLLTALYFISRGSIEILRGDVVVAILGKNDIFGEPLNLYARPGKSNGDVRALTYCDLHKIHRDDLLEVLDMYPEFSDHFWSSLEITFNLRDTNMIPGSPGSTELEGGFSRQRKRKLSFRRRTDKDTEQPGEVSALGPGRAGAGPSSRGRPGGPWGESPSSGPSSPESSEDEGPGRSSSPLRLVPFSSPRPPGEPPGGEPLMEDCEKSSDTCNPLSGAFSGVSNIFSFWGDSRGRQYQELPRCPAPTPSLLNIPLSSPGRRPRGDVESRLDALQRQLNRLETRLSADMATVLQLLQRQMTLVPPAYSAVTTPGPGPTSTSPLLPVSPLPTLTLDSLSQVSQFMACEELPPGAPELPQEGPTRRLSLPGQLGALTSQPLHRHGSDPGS

SMILES	hERG current change (%, negative = inhibition) at 1uM [%]
Cc1ccc(-c2nnc(-c3ccc(Br)cc3)o2)o1	6.38
Cc1oc(C(C)(C)C)cc1C(=O)NCC(=O)NCC(=O)O	7.69
CC(=O)C(Cc1ccccc1)NC(=O)CN1CCc2ccccc2C1 (stereo not shown)	1.44
COc1cccc(C2Oc3ccccc3C3CC(c4cccs4)=NN32)c1 (stereo not shown)	13.9
CCc1ccc(N(C(=O)CNC(=O)c2ccco2)C(C(=O)NC2CCCC2)c2ccncc2)cc1 (stereo not shown)	5.85
Cc1ccccc1NC(=O)c1cccnc1	18.2
CCCNS(=O)(=O)c1ccc(CCC(=O)NCc2cccnc2)cc1	22.5
Cn1c(=O)n(C)c2cc(S(=O)(=O)N3CCCCC3)ccc21	15.1
CCOc1cccc(-c2c(C(=O)N/N=C/c3cccs3)nnn2-c2nonc2N)c1	15.1
CCOc1ccc(S(=O)(=O)N(CC)CC(=O)NCc2cccnc2)cc1C	4.6
Cc1cccc(NCC(O)Cn2cnc3c2c(=O)n(C)c(=O)n3C)c1 (stereo not shown)	6.47
COc1ccnc(Oc2ccc(C)cc2)c1C#N	7.87
COc1nc(NCCc2ccc(OC)c(OC)c2)nc(OC)n1	-5.49
CNC(=O)CSc1nnc(-c2cccnc2)n1-c1ccc(C)cc1	15.1
COc1cccc(C=Nc2ccccc2C(=O)Nc2ccccc2)c1O	4.5
CCN1CCN(C(c2cc(OC)c(OC)c(OC)c2)c2nnnn2C(C)C)CC1.Cl (stereo not shown)	9.19
COc1ccccc1N1CCN(S(=O)(=O)c2ccc3c(c2)NC(=O)CS3)CC1	9.4
O=C(Nc1ccc(-c2ccccc2)cc1)c1ccc2c(c1)S(=O)(=O)c1ccccc1C2=O	6.62
C=C(C)CN(CC)C(=O)CSc1ccc(S(=O)(=O)N2CCN(Cc3ccccc3)CC2)cn1	-8.52
CC(C)(C)NC(=O)Cn1nnc(-c2cccs2)n1	4.77
O=c1c2c(ncn1Cc1ccccc1)nc1n2CCC1	8.46
Nc1ccc(Nc2nc(-c3cc4ccccc4oc3=O)cs2)cc1	6.2

SMILES	hERG current change (%, negative = inhibition) at 1uM [%]
CCOC(=O)c1ccc(-n2c(CN(CC)CC)nc3ccc([N+](=O)[O-])cc3c2=O)cc1	9.72
CCOC(=O)C1CCN(C(=O)COc2ccc(S(=O)(=O)NC(C)C)cc2Cl)CC1	-6.69
Cc1ccc(CNC(=O)C(=O)NCCC2CCCCN2S(=O)(=O)c2ccc(C)cc2)cc1 (stereo not shown)	4.51
O=C(NC1CCCCC1)N1CCN(C2CCCCC2)CC1	5.11
CCCCCCCCCCCCN1C(=O)CSC1c1cccnc1 (stereo not shown)	14.5
C=CCNC(=O)CC(=O)N/N=C/c1cccc(C)c1	9.72
O=C(CSc1nncs1)Nc1ccc(Cl)cc1C(F)(F)F	14.3
COc1ccc(Br)cc1CNCCc1cccc(Cl)c1.O=C(O)C(=O)O	0.403
O=C(c1ccc2c(c1)C(=O)N(Cc1ccco1)C2O)N1CCOCC1 (stereo not shown)	16.8
N#Cc1ccccc1S(=O)(=O)N1CCN(C(=O)c2cn(-c3ccccc3)nc2-c2cccnc2)CC1	-27.7
CCOC(=O)C1=C2SCC(=O)N2C(N)=C(C#N)C1	1.92
CC(=O)COc1ccc2c(-c3ccccc3)cc(=O)oc2c1C	8.18
O=C1c2ccccc2C(=O)N1Cc1cc(-c2ccc(Cl)cc2)no1	12.3
Cc1ccc(OCCn2cccn2)c(C)c1	6.35
Cc1ccc(C)c(NC(=O)CN(C)C(=O)c2oc3c(Cl)cccc3c2C)c1	-4.63
Cl.Fc1ccc(Cn2nnnc2C(c2ccc(Cl)cc2)N2CCSCC2)cc1 (stereo not shown)	12.5
CC1Cc2ccccc2N1S(=O)(=O)c1cccc(C(=O)N2CC(=O)Nc3ccccc32)c1 (stereo not shown)	-5.32
CCOc1ccc(C(C)=O)cc1COC(=O)CCc1cc(OC)c(OC)c(OC)c1	10.5
COc1ccccc1N(CC(=O)NCCSc1ccccc1)S(C)(=O)=O	1.1
Cc1ccc(C(=O)NCC(=O)OCC(=O)c2ccc(Cl)s2)cc1	8.96
Cc1ccc(OCc2cc(C(=O)N3CCc4sccc4C3)no2)cc1C	10.2
CCc1ccc(Nc2nnc(SCC(=O)NC(=O)c3cccn3C)s2)cc1	10.2

SMILES	hERG current change (%, negative = inhibition) at 1uM [%]
CN(C)c1ccc(/C=C(/NC(=O)c2ccccc2)C(=O)NCCN2CCOCC2)cc1	16.1
COc1cc(Cl)cc(CN2CCC(CCC(=O)NC3CC3)CC2)c1OC	8.95
NC(=O)NC(=O)CN1C(=O)NC2(CCOc3ccccc32)C1=O (stereo not shown)	6.17
Cc1ccc(C)c(S(=O)(=O)N2CCN(C(=O)c3cccnc3)CC2)c1	7.12
COc1cc(Cl)ccc1OCc1cc(C(=O)N(C)C2CCOC2)no1 (stereo not shown)	13.2
CCCS(=O)(=O)c1ccc(COC(=O)c2cccc(NC(=O)C(C)C)c2)cc1	3.65
Cc1c(/C=N/N=C2\CCC3C4CCc5cc(O)ccc5C4CCC23C)cnn1C (stereo not shown)	4.56
C=CCNC(=O)c1cc(-c2ccc3c(c2)OCO3)on1	10.5
CCOC(=O)N1CCN(CCC(=O)c2ccc(OC)cc2)CC1.Cl	-2.21
CCSc1nnc(Cc2cc(=O)[nH]c(=O)[nH]2)n1-c1cccc(C)c1	7.26
CC(=O)c1cccc(S(=O)(=O)NCCC(=O)NC2CCCCCC2)c1	8.68
CC(C)c1ccc(N=Nc2c(O)[nH]c(=O)[nH]c2=O)cc1	11.2
CN1CCN(C(=O)CCc2ncc(C(F)(F)F)cc2Cl)CC1	12
O=C(CN(Cc1ccccc1)C(=O)c1cc2c(s1)CCC2)NCc1cccs1	5.46
CCCCN1C(N)=NC[C@H]1Cc1ccc(O)cc1	14.3
COc1cc2c(cc1NC(=O)/C=C/c1ccccc1)oc1ccccc12	14.4
CC(/C=C1\SC(=S)N(CCC(=O)Nc2ccc(O)cc2)C1=O)=C\c1ccccc1	17
COCCNc1cc(C)c(C#N)c2nc3ccccc3n12	-0.748
O=C(Nc1nnc(-c2ccccn2)o1)c1cccc(Br)c1	9.48
COc1ccccc1Nc1nc(N2CCOCC2)nc(N2CCOCC2)n1.Cl	13.1
COc1cc(C(=O)OCC(=O)N(CC(C)C)C2CCS(=O)(=O)C2)cc(OC)c1C (stereo not shown)	-0.238
Fc1ccc(NC(=S)Nc2cccnc2)cc1Cl	5.8

SMILES	hERG current change (%, negative = inhibition) at 1uM [%]
O=S(=O)(c1cccc(NC(=S)N2CCN(c3ccccc3)CC2)c1)C(F)F	4
O=C(Oc1ccc([N+](=O)[O-])cc1)N1CCC(N2CCCCC2)CC1	-38.5
O=C1/C(=C/c2ccc(F)cc2)SC(=S)N1CC(=O)N1CCCCC1c1cccnc1 (stereo not shown)	12.6
CCN(Cc1ccccc1)S(=O)(=O)c1cn(C)cn1	11.5
CC(c1ccccc1)n1cc(C(=O)NCc2ccncc2)nn1 (stereo not shown)	2.06
S=C1NCCc2ccc(Cl)cc2C1c1ccccc1Cl (stereo not shown)	13.6
CCCN(CCO)C1CCN(CCc2ccccc2)CC1	9.96
CC(=O)c1cc(F)c(N2CCN(C(=O)COc3ccccc3F)CC2)cc1C	2.93
COc1ccc(NC(=S)NCC2CCN(c3ccc(OC)cc3)C2)cc1 (stereo not shown)	2.84
CCn1c(Cn2nnc(-c3ccccc3)n2)nnc1SCc1ccc(Cl)c(Cl)c1	2.07
CCOC(=O)C1CCN(S(=O)(=O)c2ccc(Cl)s2)CC1	12.4
O=C(CCCC(=O)N(CC(=O)NC1CCCCC1)c1cccc(F)c1)Nc1ccccn1	0.626
COc1ccc(C2C(C#N)=C(/N=C/N3CCOCC3)OC3=C2C(=O)CC(C)(C)C3)cc1OC (stereo not shown)	-0.831
CC(C)(C)c1cc(C(=O)C[n+]2ccc(C(=O)NCCCO)cc2)cc(C(C)(C)C)c1O.[Br-]	13.4
Cc1ccc(OCCSCc2nnc(NC(=O)Nc3cccc(Cl)c3)s2)cc1	1.73
Cc1ccc(NC(=O)Cc2ccc(Cl)c(Cl)c2)cc1S(=O)(=O)N(C)C	10.1
COc1ccccc1CC(NC(C)=O)C(=O)NC1CCN(S(=O)(=O)c2ccc(NC(C)=O)cc2)CC1 (stereo not shown)	0.979
Cc1cc2c3c(c1)C1(SCC(=O)N1c1ccc(F)cc1)C(=O)N3C(C)(C)CC2C (stereo not shown)	-3.01
COc1ccccc1CC(=O)Nc1cc(S(=O)(=O)N2CCOCC2)ccc1N1CCOCC1	6.53
O=C(N/N=C/c1ccc(Cl)cc1)Nc1ccccc1	2.21
Cc1ccc(C)c(N2CCN(C(=O)c3ccc(NS(=O)(=O)c4c(C)noc4C)cc3)CC2)c1	9.8
Cc1ccc2[nH]c(=O)c(CN(CC3CCCO3)C(=O)c3ccncc3)cc2c1 (stereo not shown)	10.8
